# Source: PubChem BioAssay AID1347165 (National Center for Advancing Translational Sciences (NCATS), 2019)
# Several values for one entry are separate records, joined by “and”; a condition that tells them apart may be missing. Equal values may be shown once. The whole screen tested about 220,000 compounds, of which about 5,700 (2.6%) were called active. Inconclusive results, whose numbers are uncertain, are shown with a selection of clear calls. The call rests on the fitted dose curve; in most records, active means well fitted inhibition curve with a large enough effect; inconclusive means small, poorly fitted or top-dose-only effect; inactive means no such curve, though single readings can be large or run the other way. Potencies beside an inconclusive call are fits to weak or partial responses and may not hold up.
# Biological target: Lysine-specific demethylase 5B (Homo sapiens) (UniProt Q9UGL1)
# Chain of UniProt Q9UGL1 (Q9UGL1 whole entry, looked up): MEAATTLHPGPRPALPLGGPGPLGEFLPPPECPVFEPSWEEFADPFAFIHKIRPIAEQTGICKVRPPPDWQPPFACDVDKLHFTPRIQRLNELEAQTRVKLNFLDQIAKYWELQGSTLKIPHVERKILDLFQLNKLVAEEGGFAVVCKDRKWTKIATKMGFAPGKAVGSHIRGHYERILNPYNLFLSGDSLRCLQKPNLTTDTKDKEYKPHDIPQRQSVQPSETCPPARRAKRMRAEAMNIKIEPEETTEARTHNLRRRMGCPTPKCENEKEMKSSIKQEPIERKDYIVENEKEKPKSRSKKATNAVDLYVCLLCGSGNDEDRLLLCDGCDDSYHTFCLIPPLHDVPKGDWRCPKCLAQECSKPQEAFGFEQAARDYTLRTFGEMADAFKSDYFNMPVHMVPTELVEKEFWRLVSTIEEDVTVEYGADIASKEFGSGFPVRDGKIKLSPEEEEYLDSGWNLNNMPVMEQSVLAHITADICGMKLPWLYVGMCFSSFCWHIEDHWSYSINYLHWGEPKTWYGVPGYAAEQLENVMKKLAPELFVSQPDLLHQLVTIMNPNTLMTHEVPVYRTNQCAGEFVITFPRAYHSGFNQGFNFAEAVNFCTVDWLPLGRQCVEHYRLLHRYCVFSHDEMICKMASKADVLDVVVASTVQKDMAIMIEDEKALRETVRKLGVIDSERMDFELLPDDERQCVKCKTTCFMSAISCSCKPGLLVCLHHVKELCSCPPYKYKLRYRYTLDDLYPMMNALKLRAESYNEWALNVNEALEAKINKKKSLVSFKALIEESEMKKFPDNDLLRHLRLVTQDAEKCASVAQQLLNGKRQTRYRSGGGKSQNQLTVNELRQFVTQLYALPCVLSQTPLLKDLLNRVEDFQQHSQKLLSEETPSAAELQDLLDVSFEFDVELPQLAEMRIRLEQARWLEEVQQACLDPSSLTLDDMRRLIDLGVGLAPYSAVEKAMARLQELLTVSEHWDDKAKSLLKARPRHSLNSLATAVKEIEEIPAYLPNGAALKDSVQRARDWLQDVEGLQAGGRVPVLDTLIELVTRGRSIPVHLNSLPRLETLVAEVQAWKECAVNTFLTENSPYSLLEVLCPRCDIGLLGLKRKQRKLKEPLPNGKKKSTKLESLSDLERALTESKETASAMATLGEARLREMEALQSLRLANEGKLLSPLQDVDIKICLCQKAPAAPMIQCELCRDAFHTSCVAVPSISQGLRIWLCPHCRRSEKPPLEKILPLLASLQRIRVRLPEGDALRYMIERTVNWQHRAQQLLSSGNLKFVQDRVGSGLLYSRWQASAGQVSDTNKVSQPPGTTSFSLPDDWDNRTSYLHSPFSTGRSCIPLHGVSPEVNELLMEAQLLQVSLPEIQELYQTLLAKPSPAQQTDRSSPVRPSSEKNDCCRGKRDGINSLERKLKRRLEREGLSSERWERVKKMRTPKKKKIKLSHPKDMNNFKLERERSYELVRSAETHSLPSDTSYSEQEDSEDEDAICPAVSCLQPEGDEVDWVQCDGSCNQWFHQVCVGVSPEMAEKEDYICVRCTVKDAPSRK
# Test: Primary screen for KDM5B Histone Demethylases FDH-coupled qHTS; further: nearly all actives have a fitted effect of over 70% in size; on activity change, negative = inhibition: 0% is about no effect
# Conditions: FDH-coupled NADH fluorescence (FDH is formaldehyde dehydrogenase); activity change, negative = inhibition: at 57.7 µM (top of the series) unless noted
# Summary of the method: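 Inhibition is measured as reduced NADH fluorescence generation from FDH coupling to formaldehyde release. Truncated KDM5BΔAP at 200 nM final acts on H3K4me3 peptide (12.5 µM in substrate mix) in pH 7.5 HEPES buffer with Tween-20, 30 min, room temperature.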
# Potency means the concentration at half of the fitted maximal effect; tags describe the fitted curve by direction and shape.
SMILES,Potency,"activity change, negative = inhibition"
O=C(Nc1ccc(Cl)cc1Cl)c1cc(S(=O)(=O)N2CCCCCC2)ccc1F,"inconclusive: 25.1 µM [inhibitor, partial curve, poor fit]",–
CCCCS(=O)(=O)c1oc(-c2cccs2)nc1S(=O)(=O)c1ccc(F)cc1,"inconclusive: 15.8 µM [inhibitor, partial curve, poor fit]",–
CCCc1noc(-c2cccn3c(CNC(=O)C4CCC4)nnc23)n1,active: 28.2 µM,–
Cc1ccccc1-c1[nH]nc2ncc(-c3ccsc3)nc12,active: 31.6 µM,–
COc1cccc(OCc2ccc(Cl)cc2)c1C#N,"inconclusive: 28.2 µM [inhibitor, single point]",–
CCOC(=O)CCC(=O)Nc1nnc2n1CCS2,"inconclusive: 1.78 µM [inhibitor, partial curve, poor fit]",–
CCC(=O)n1nc(-c2ccc(OC)cc2)nc1SCc1ccccc1,inactive,–
Fc1ccc(C2Cn3cnc(-c4nc(-c5ccc6c(c5)OCO6)no4)c3CO2)cc1 (stereo unspecified),inactive,–
COc1ccc(CNC(=O)CCc2c(C)c3cc4c(C)c(C)oc4cc3oc2=O)cc1,"inconclusive: 1.41 µM [inhibitor, full curve, poor fit]",–
CCOc1ccc(/C(O)=C2/C(=O)C(=O)N(c3ccccn3)C2c2ccc(C)cc2)c(C)c1 (stereo unspecified),"inconclusive: 25.1 µM [inhibitor, partial curve, poor fit]",–
CNC(=O)[C@@H]1CN(S(=O)(=O)c2cccc(Cl)c2)C[C@H]1C1CCN(C)CC1,inactive,–
CNC(=O)[C@@H]1CN(C(=O)c2cccnc2C)C[C@H]1COC,inactive,–
O=C(CSc1nc2cc3ccccc3cc2[nH]1)Nc1ccc(F)cc1,–,inconclusive: -58.6% [inhibitor] [at 11.5 µM]
COc1ccc(OC)c(-c2nc(CN3CCN(C)C(=O)C3C)c(C)o2)c1 (stereo unspecified),"inconclusive: 31.6 µM [inhibitor, partial curve, poor fit]",–
COc1ccc(-c2nc(CS(=O)(=O)CC(=O)NCCCN3CCN(C)CC3)c(C)o2)cc1,"inconclusive: 17.8 µM [inhibitor, partial curve, poor fit]",–
C=CCn1c(SC)nc2c1c(=O)n(C)c(=O)n2C,inactive,–
CCOC(=O)c1sc2nc(C(C)N3CCC(C)CC3)[nH]c(=O)c2c1C (stereo unspecified),"inconclusive: 35.5 µM [inhibitor, single point]",–
CCCc1nnsc1C(=O)N[C@@H]1COCC[C@@H]1OCC1CC1,"inconclusive: 28.2 µM [inhibitor, single point]",–
Cc1cc(C2=NNC(=NC(C)C)SC2)c(C)n1C1CC1,inactive,–
COc1ccc(OC)c(NC(=O)c2cnc(Nc3ccc(C)c(Cl)c3)c3ccccc23)c1,"inconclusive: 31.6 µM [inhibitor, partial curve, poor fit] and inconclusive: 39.8 µM [inhibitor, single point]",–
O=C(CSc1ncnc2nc[nH]c12)Nc1ccc(F)cc1,inactive,–

SMILES,Potency,"activity change, negative = inhibition"
COc1cccc(CC(=O)N[C@@H]2C[C@H](Cn3cc(-c4cccnc4)nn3)[C@@H](O)[C@H]2O)c1,"inconclusive: 20 µM [inhibitor, single point]",–
CC(C)c1noc(-c2cccn3c(CNC(=O)Cc4cccc(F)c4)nnc23)n1,"inconclusive: 15.8 µM [inhibitor, partial curve, poor fit]",–
O=C(NCc1cccc(F)c1)c1nc2c(o1)CCN(Cc1cccc(Cl)c1)CC2,active: 35.5 µM,–
O=[S+]1([O-])NC2(CCN(Cc3ccc(Cl)s3)CC2)COc2ccccc21,active: 70.8 µM,–
Cc1ccc(N(Cc2ccco2)C(=O)CCc2ncc(-c3c(F)cccc3F)o2)cc1,inactive,–
Cc1cc(C)c([S+](=O)([O-])c2nnn3c2nc(N2CCCCC2)c2ccccc23)c(C)c1,"inconclusive: 56.2 µM [inhibitor, partial curve, poor fit]",–
CCCN(CCC)C(=O)c1cc(-c2ccc3c(c2)OCO3)nc2ccccc12,"inconclusive: 31.6 µM [inhibitor, partial curve, poor fit]",–
COc1ccc(-c2nc3c(c(=O)[nH]2)CCN(C(=O)Nc2cc(F)cc(F)c2)C3)cc1,active: 17.8 µM,–
Cc1c(-c2ccccc2)[nH]c2c(CNC(=O)CN3C(=O)CNC3=O)cc(Cl)cc12,"inconclusive: 39.8 µM [inhibitor, single point]",–
COc1ccc(OC)c(C2CCN(C(=O)c3cc4ccccc4[nH]c3=O)C2)c1 (stereo unspecified),"inconclusive: 28.2 µM [inhibitor, partial curve, poor fit]",–
CCCCCN1C(C(=O)c2ccccc2)=C(NC(=O)c2ccc(C)cc2)c2ccccc2S1(=O)=O,"inconclusive: 31.6 µM [inhibitor, single point]",–
O=C(OCC(=O)N1CCCC1)c1cc(-c2ccco2)nc2ccccc12,"inconclusive: 25.1 µM [inhibitor, single point]",–
CCOc1ccc(NC(=O)c2c(NCc3cccnc3)sc3c2CCC(C)C3)cc1 (stereo unspecified),"inconclusive: 8.91 µM [inhibitor, partial curve, poor fit]",–
COc1ccc(C(C#N)(CCC#N)C(C)C)cc1OC (stereo unspecified),inactive,–
O=C(NCCc1ccc(OC(F)F)cc1)c1nn(Cc2ccccc2)c(=O)c2ccccc12,inactive,–
c1cncc(CN2CCc3c(sc4ncnc(N5CCOCC5)c34)C2)c1,"inconclusive: 15.8 µM [inhibitor, partial curve, poor fit]",–
CN(C)C[C@@H]1CN(S(C)(=O)=O)C[C@H]1NC(=O)c1ccc2[nH]ccc2c1,"inconclusive: 17.8 µM [inhibitor, partial curve, poor fit]",–
COc1ccc2cc(C(=O)N(C)CC(=O)Nc3c(C)cc(C)cc3C)c(C)nc2c1,"inconclusive: 31.6 µM [inhibitor, partial curve, poor fit]",–
CSc1ccc(CNC(=O)c2ccc(Nc3cc(-c4ccc(F)cc4)ncn3)cc2)cc1,"inconclusive: 7.94 µM [inhibitor, full curve, poor fit]",–
COc1ccccc1NC(=O)N1CCC2(CC1)SCC(=O)N2Cc1ccco1,"inconclusive: 39.8 µM [inhibitor, partial curve, poor fit]",–
